Results on 89 compounds are retold here after PubChem BioAssay AID463173 (ICCB-Longwood Screening Facility, Harvard Medical School, 2010).

The structures appear in SMILES notation. Screen size: about 52,000 compounds; about 4,300 (8.3%) were called active. Rule as the data show it: active = survival mostly below about 52% (no sharp cut-off); inactive = mostly above about 56%. Some of the results follow.

The test system of the assay is DeltatarO mutant. The assay is described as follows: growth inhibition of S. aureus wild type versus tarO mutant, primary screen, teichoic acid synthesis inhibitors, RN4220, OD600 (AID 463173). Conditions: OD600, 18 h, hits give low values, screened at 18.75 µg/mL (by protocol).
Take `Cc1ccccc1Cn1nnc2c(=O)[nH]c(C3CCN(C(=O)c4ccc(F)cc4)CC3)nc21`: the survival was active: 52%.
With `Cc1cc(C)c(Cn2c3ccccc3c3cnn(CC(=O)NCc4cccs4)c(=O)c32)c(C)c1`, the survival is inactive: 72%.
For the compound `CN(C)S(=O)(=O)N1CCNCC1`, the survival is inactive: 90%.
For `CC(C)c1nn2c(=O)cc(COC(=O)c3ccc(NC(=O)COc4ccccc4)cc3)nc2s1`, the survival was inactive: 98%.
For `COc1ccccc1C(=O)Nc1ccccc1OCc1cc(=O)n2c(C)csc2n1`, the survival is inactive: 60%.
As for `CCc1ccc(-n2c(=O)c3c4c(sc3n(CC(=O)c3ccc(F)cc3)c2=O)CCC4)cc1`, the survival was inactive: 81%.
As for `CCC(C)NC(=O)CCCN1C(=O)CCn2nc(-c3cccn3C)cc21` (centres undefined), the survival is inactive: 85%.
As to `COc1ccc(-c2ccc3c(N)c(C(=O)c4ccc(OC)c(OC)c4)sc3n2)cc1`, the survival was inactive: 52%.
As for `CCc1cccc(NC(=O)COC(=O)c2cn(CC)c3nc(C)ccc3c2=O)c1`, the survival was inactive: 87%.
With `CCCc1cc(=O)[nH]c(SCC(=O)N2CCN(c3ccccc3)CC2)n1`, the survival was inactive: 99%.
For `COc1ccc(CNC(=O)CSCc2nc(-c3ccccc3C)oc2C)cc1` the value was inactive: 55%; for `COc1ccc(CNC(=O)c2ccc(-c3nc(CSc4ccccc4)c(C)o3)cc2)cc1OC`, inactive: 78%; for `COc1cccc(N2CCN(C(=O)c3ccc(C)c(NC(=O)c4nsc5ccccc45)c3)CC2)c1`, inactive: 96%.
Regarding `Cc1ccc(N(CC(=O)NCCc2ccc(Cl)cc2)S(=O)(=O)c2c(C)noc2C)cc1`, the survival was inactive: 87%.
In the case of `Cc1ccc(C(c2sc3nc(-c4ccco4)nn3c2O)N2CCCC2)cc1` (centres undefined) it was inactive: 73%; in that of `Cc1cccc(NC(=O)Cn2nnc(-c3nc(-c4ccncc4)no3)c2N)c1`, inactive: 85%; in that of `COc1ccc(CN2CCc3c(c(=O)n4ncc(C(=O)N5CCN(c6ccccc6OC)CC5)c4n3C)C2)cc1`, inactive: 89%.
For the compound `Cc1ccc(NC(=O)CN2C(=O)c3ccccc3Sc3ccc(C(=O)N4CCOCC4)cc32)cc1F`, the survival is inactive: 88%.
Consider `CCN(CC)Cc1c(C(C)(C)C)oc(C)c1C(=O)O`, for which the survival was inactive: 81%.
For `COc1ccc(NC(=O)CN2C(=O)CCn3nc(-c4cccn4C)cc32)cc1Cl` the value was inactive: 83%; for `O=S(=O)(c1ccc(-c2cc(C(F)(F)F)on2)s1)N1CCN(c2ccccc2F)CC1`, inactive: 66%; for `[O-][n+]1onc(-c2ccccc2)c1-c1ccccc1`, inactive: 88%.
`COC(=O)c1ccccc1NC(=O)c1cc(-c2ccccc2O)no1`: the survival is inactive: 92%.
Regarding `CC(=O)Nc1nonc1-c1nnc(SCC(=O)Nc2ccc(C)cc2)n1-c1ccccc1`, the survival is inactive: 53%.
Turning to `CCCN1CCN(c2ncnc3sc(C(=O)Nc4ccc(C(C)C)cc4)c(C)c23)CC1`, the survival is inactive: 73%.
Consider `CCOC(=O)c1sc2cccc(F)c2c1S(=O)(=O)NCc1ccccc1Cl`, for which the survival is inactive: 124%.
For the compound `O=C(CS(=O)(=O)c1cccc2nsnc12)N1CCN(c2cccc(Cl)c2)CC1`, the survival was inactive: 100%.
As to `COc1ccc(-c2cc(-c3ccccc3)c(C#N)c(SCC(O)CS(=O)(=O)Cc3ccc(Cl)cc3)n2)cc1` (centres undefined), the survival is inactive: 152%.
In the case of `Cc1cc(C)c(Nc2nc3ccccc3n3c(C)nnc23)c(C)c1` it was inactive: 76%; in that of `O=C1CNC(=O)c2c(nc3n2CCC3)N1`, inactive: 101%; in that of `COc1ccccc1OCCn1c(NC(=O)c2ccccc2Cl)nc2ccccc21`, active: -3%.
Consider `Cc1ccc(NC(=O)C(=O)NCC(c2cccnc2)N2CCN(Cc3ccccc3)CC2)cc1C` (centres undefined), for which the survival is inactive: 80%.
Turning to `CCOc1ccc(Nc2oc(-c3ccc(COc4ccc(OC)cc4)o3)nc2C#N)cc1`, the survival is inactive: 70%.
For the compound `CCOC(=O)C1CCN(c2cc3c(cc2NC(=O)c2ccc(Cl)cc2)n(C)c(=O)n3C)CC1`, the survival is inactive: 93%.
`COc1ccc(S(=O)(=O)NCc2ccc3c(c2)CCN3C(=O)c2ccccc2)cc1OC`: the survival is inactive: 73%.
Regarding `COC(=O)c1ccc(Cl)cc1NC(=O)N1CC2CCCN2c2ccccc21` (centres undefined), the survival was inactive: 71%.
With `COc1ccc(NC(=O)CN2C(=O)CCn3nc(-c4cccn4C)cc32)cc1`, the survival is inactive: 81%.
Consider `CCOc1ccc2nc(SCC(=O)NCC3CCCO3)c(C#N)cc2c1` (centres undefined), for which the survival is inactive: 85%.
In the case of `O=C1c2cccc3c(N4CCOCC4)ccc(c23)C(=O)N1c1ccccc1` it was inactive: 98%.
Regarding `Cc1ccc(NC(=O)C(Cc2c[nH]c3ccccc23)NC(=O)OC(C)(C)C)c(C)c1` (centres undefined), the survival was active: 27%.
In the case of `Cc1cc(C)cc(NC(=O)NCCc2c(C)nn(C)c2C)c1`, the survival is inactive: 64%.
As for `Cc1cc2c(cc1S(=O)(=O)CCC(=O)N1CCC(C)CC1)OCC(=O)N2`, the survival is inactive: 102%.
Turning to `CCc1ccc(C(=O)c2cn(CC(=O)Nc3ccc4c(c3)OCO4)c3ccc(CC)cc3c2=O)cc1`, the survival is inactive: 75%.
For `CCN(CC)C(=O)Cn1c(=O)cc(C)c2c(C)nn(-c3cccc(Cl)c3C)c21` the value was inactive: 87%.
With `COc1cccc(CNC(=O)C2CCC(CNS(=O)(=O)c3ccc4c(c3)CCCC(=O)N4)CC2)c1` (centres undefined), the survival is inactive: 94%.
In the case of `Cc1ccc(NC(=O)CSc2nnc3scc(-c4ccc(Cl)cc4)n23)cc1`, the survival is inactive: 49%.
In the case of `CCN(CC)CCCNc1oc(/C=C/c2ccc(OC)c(OC)c2)nc1C#N` it was inactive: 71%; in that of `COc1ccc(NC(=O)Cn2cc(S(=O)(=O)N3CCN(c4ccccc4F)CC3)c3ccccc3c2=O)cc1Cl`, inactive: 85%; in that of `CCC(=O)n1c2c(c3ccccc31)Nc1ccccc1N2`, inactive: 82%.
As to `Cc1ccc(Nc2nc3nonc3nc2Nc2cccc(C(F)(F)F)c2)cc1Cl`, the survival is active: -1%.
Regarding `CCOC(=O)C1=C(CN2CCN(c3ccc(OC)cc3)CC2)NC(=O)NC1c1ccc(OC)cc1` (centres undefined), the survival is inactive: 119%.
For `CNc1c(NC(=O)c2ccc(OC)c(OC)c2)c(=O)oc2ccccc12` the value was inactive: 92%.
With `CCOc1ccc(-c2cc(C(=O)N3CCN(c4cc(Cl)ccc4C)CC3)c3ccccc3n2)cc1`, the survival is inactive: 58%.
`COc1ccc(C)cc1NC(=O)c1noc2c1CSc1ccccc1-2`: the survival is inactive: 78%.
In the case of `COc1ccc(C2C(C(=O)Nc3ccccc3)=C(C)Nc3c(C(=O)Nc4ccccc4)cnn32)cc1` (centres undefined) it was inactive: 126%; in that of `Cc1nc(N2CCCC2)c2c(C(=O)N3CCN(c4ccccc4)CC3)c(C)oc2n1`, inactive: 81%; in that of `Cc1cc2c(n1-c1ccc(C(=O)NCCc3ccc(Cl)cc3)cc1)CCCC2`, inactive: 124%.
Consider `CC(=O)N1CCN(S(=O)(=O)c2ccc(C)cc2)C1C(C)C` (centres undefined), for which the survival is inactive: 106%.
In the case of `CCC(Cn1nnc2ccccc2c1=O)NC(=O)Nc1cc(C)cc(C)c1` (centres undefined), the survival was active: 41%.
Take `CC(C)C(=O)Nc1nnc2n1CCS2`: the survival was inactive: 101%.
In the case of `CCOc1ccc(CNC(=O)c2cccc(NC(=O)N3CCSc4ncccc43)c2)cc1OC` it was inactive: 92%; in that of `CCc1ccc(C(=O)c2cn(CC(=O)Nc3ccc(Cl)cc3)c3cc4c(cc3c2=O)OCO4)cc1`, inactive: 146%.
Consider `CCOc1cc2sc(N3CCC(C(=O)Nc4ccc(CC)cc4)CC3)nc2cc1Br`, for which the survival is inactive: 86%.
In the case of `CC(=O)N1CCCc2cc(S(=O)(=O)N3CCCC(C(=O)N4CCN(c5cccc(Cl)c5)CC4)C3)ccc21` (centres undefined), the survival is inactive: 81%.
For the compound `Cc1ccc(C)c(CSc2nnc3[nH]c(=O)cc(C)n23)c1`, the survival was inactive: 67%.
As for `Cc1ccc(S(=O)(=O)n2nc(C)c(S(=O)(=O)N3CCCCCC3)c2C)cc1`, the survival is inactive: 109%.
For the compound `CC(C)c1nn2c(=O)cc(COC(=O)c3cccc(NC(=O)COc4ccc(F)cc4)c3)nc2s1`, the survival is inactive: 89%.
For `COc1ccc(NC(=O)Cn2c(=O)n(-c3cc(C)cc(C)c3)c(=O)c3oc4ccccc4c32)cc1OC` the value was inactive: 68%.
In the case of `COc1cc(CN2CCN(C3CCCCCC3)CC2)cc(OC)c1OC`, the survival is inactive: 87%.
With `O=C(NCCc1ccccc1)c1nn(-c2ccccc2F)nc1CO`, the survival was inactive: 88%.
For the compound `Cc1ccc2c(CNCCc3ccccc3)c(C(=O)O)n(Cc3ccccc3C)c2c1`, the survival is active: 6%.
As to `COCCNC(=O)CCC(=O)NNc1nc2ccccc2c2nc(C)nn12`, the survival was inactive: 82%.
On to `CCOc1ccccc1NC(=O)c1c(NC(=O)COc2ccc(Cl)cc2)sc2c1CCCCC2`, for which the survival was inactive: 62%.
For `O=C(CN1CCC(N2CCCCC2)CC1)NC12CC3CC(CC(C3)C1)C2`, the survival is inactive: 95%.
As for `CS(=O)(=O)N1CCc2cc(C(=O)N3CCN(c4cccc(Cl)c4)CC3)ccc21`, the survival is inactive: 49%.
Turning to `COc1ccc(Br)cc1C1C(C(=O)Nc2ccc(C)cc2C)=C(C)Nc2ncnn21` (centres undefined), the survival is inactive: 76%.
For the compound `Cc1ccc(NC(=O)C2(c3cccs3)CCOCC2)cc1Cl`, the survival was inactive: 83%.
Regarding `Cc1ccc(C)c(N2CCN(C(=O)c3cn(CC(C)C)c(=O)c4c3c3ccccc3n4C)CC2)c1`, the survival was inactive: 28%.
For the compound `COCCCNc1nc(NCc2ccccc2OC)c2cnn(C)c2n1`, the survival is inactive: 107%.
As to `Cc1ccc(C)c(CSc2nc(-c3ccccc3F)nc3c2Cc2c(CO)cnc(C)c2O3)c1`, the survival was inactive: 108%.
In the case of `CCC1CC(/C(C)=N/NC(N)=O)OC1=O` (centres undefined) it was inactive: 71%; in that of `COc1ccccc1C(=O)Nc1ccc(NC(=O)c2cccs2)cc1`, inactive: 51%.
In the case of `COc1ccc(Nc2cc(C(=O)NCCCN(C)Cc3ccccc3)c3ccccc3n2)c(OC)c1` it was inactive: 66%.
With `CCOc1ccc(S(=O)(=O)NCC(c2ccco2)S(=O)(=O)c2ccc(C)cc2)cc1` (centres undefined), the survival was inactive: 55%.
For `COc1ccccc1NC(=O)N1CCN(c2nnc(C)c3c(C)n(-c4ccc(Cl)cc4)nc23)CC1` the value was inactive: 75%; for `CC(C)N(C(=O)CSc1nnc(-c2cccs2)o1)C(C)C`, inactive: 61%.
In the case of `CCOc1ccccc1NC(=O)COC(=O)c1cn(CC)c2nc(C)ccc2c1=O` it was inactive: 61%; in that of `COc1cc(-c2nc3ccccn3c2Nc2ccccc2C)ccc1O`, inactive: 57%; in that of `COc1ccc(OC)c(C2c3c(-c4ccc(Br)cc4)n[nH]c3C(=O)N2c2ccc(Cl)cc2)c1` (centres undefined), inactive: 89%.
